Where a name gives a salt, the structure may show the parent alone. The list shows a part of the results. Most values come without repeats; read them as rough.

The test system of one assay is KB-3-1. The assay is described as follows: growth inhibition relative to DMSO control (SRB); cervical cancer cells: KB-3-1 is the parent and KB-V1 overexpresses MDR1; SRB is the sulforhodamine B stain; higher = more growth inhibition. Particulars: 1 µM; 72 h.
Another assay concerns KB-V1. Described as above. Particulars: 1 µM; 72 h.
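Note: Read-out is SRB optical density at 490 nm, with the control being wells given 0.5% DMSO vehicle, and compound added one day after cells were plated.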

In the case of `CC(C)(C)NS(=O)(=O)c1cncc(-c2cc(F)c3nc(N)nn3c2)c1`, the growth inhibition stood at 45.2% in the assay on KB-3-1 and 18.4% in the assay on KB-V1.

On to `N=C(N)N/N=C/c1c(Cl)cccc1Cl` [Guanabenz Acetate], for which the growth inhibition in the assay with KB-3-1 is 25.6%; in the assay with KB-V1, 13.1%.

`Cc1cccc(CC(=O)N2CCc3c2ccc(-c2cn(C)c4ncnc(N)c24)c3F)n1`: the growth inhibition in the assay with KB-3-1 amounted to 33.6%; with KB-V1 it was 29.6%.

With `COc1ccccc1N1CCN(CC(O)COc2cccc3ccccc23)CC1` (stereo unspecified) [Naftopidil], the growth inhibition with KB-3-1 was less than 0%; in the assay with KB-V1, 25.2%.

In the case of `Cc1c(-c2ccccc2)oc2c(C(=O)OCCN3CCCCC3)cccc2c1=O` [Flavoxate HCl], the growth inhibition in the assay on KB-3-1 and in the assay with KB-V1 was less than 0% each time.

Consider `COc1cccc2c1C(=O)c1c(O)c3c(c(O)c1C2=O)C[C@@](O)(C(C)=O)C[C@@H]3O[C@H]1C[C@H](N)[C@H](O)[C@H](C)O1` [Daunorubicin HCl], for which the results for the growth inhibition in the assay on KB-3-1 and with KB-V1 were 9.55% and 23.7%, respectively.

In the case of `O=c1c(-c2ccc(O)cc2)coc2cc(O)cc(O)c12` [Genistein], the results for the growth inhibition in the assay on KB-3-1 and in the assay with KB-V1 were 14% and 35.9%, respectively.

For `CCCc1nc(C)c2c(=O)nc(-c3cc(S(=O)(=O)N4CCN(CC)CC4)ccc3OCC)[nH]n12` [Vardenafil HCl Trihydrate], the growth inhibition was found to be 30.4% in the assay with KB-3-1 and 3.19% in the assay with KB-V1.

In the case of `Cc1cc(Nc2ncc(Cl)c(Nc3ccccc3S(=O)(=O)C(C)C)n2)c(OC(C)C)cc1C1CCNCC1`, the growth inhibition with KB-3-1 is 73.2%; with KB-V1, 66.8%.

In the case of `Cc1cccc(-c2nn3c(c2-c2ccnc4ccc(C(N)=O)cc24)CCC3)n1`, the figures for the growth inhibition in the assay on KB-3-1 and in the assay on KB-V1 were less than 0% and 6.54%, respectively.

On to `O=C(c1cn(Cc2cncn2Cc2ccc(Br)cc2)cc1-c1cccc2ccccc12)N1CCOCC1`, for which the growth inhibition in the assay with KB-3-1 came out at 74.8%; in the assay on KB-V1, 36.9%.

For the compound `C[C@@H]1C(=O)O[C@H]2C[C@@]34[C@H]5C[C@@H](C(C)(C)C)[C@]36[C@@H](OC(=O)[C@@H]6O)O[C@@]4(C(=O)O5)[C@]21O` [Ginkgolide A], the results for the growth inhibition in the assay on KB-3-1 and with KB-V1 were 41.7% and 14%, respectively.

`CC(C)C[C@H](NC(=O)[C@H]1O[C@@H]1C(=O)O)C(=O)NCCCCN=C(N)N`: the growth inhibition in the assay with KB-3-1 is 51.1%; in the assay on KB-V1, 0.617%.

Consider `Cc1cnc(-c2cnc(NCCNc3ccc(C#N)cn3)nc2-c2ccc(Cl)cc2Cl)[nH]1`, for which the growth inhibition in the assay on KB-3-1 was less than 0%; in the assay on KB-V1, 3.17%.

Turning to `CCOC(=O)[C@H](CCc1ccccc1)N[C@H]1CCCN2CCC[C@@H](C(=O)O)N2C1=O` [Cilazapril Monohydrate], the growth inhibition in the assay on KB-3-1 and in the assay on KB-V1 was 19.1% throughout.

In the case of `CN1CCc2nc(C(=O)N[C@@H]3C[C@@H](C(=O)N(C)C)CC[C@@H]3NC(=O)C(=O)Nc3ccc(Cl)cn3)sc2C1` [Edoxaban], the growth inhibition is 0.459% with KB-3-1 and less than 0% in the assay with KB-V1.

On to `Cc1cc(C#N)cc(C)c1Oc1nc(Nc2ccc(C#N)cc2)nc(N)c1Br` [Etravirine (TMC125)], for which the growth inhibition with KB-3-1 is less than 0%; with KB-V1, 29.9%.

As to `Cn1cc(-c2ccc3nnc(C(F)(F)c4ccc5ncccc5c4)n3n2)cn1`, the growth inhibition in the assay on KB-3-1 worked out at 29.7%; with KB-V1, 38.1%.

Take `Clc1ccc(NN=C(c2ccccc2)c2ccccn2)nc1`: the growth inhibition turned out to be 60.5% with KB-3-1 and 53.5% in the assay on KB-V1.

Take `Oc1ccc([C@H]2COc3cc(O)ccc3C2)cc1` [Equol]: the results for the growth inhibition in the assay on KB-3-1 and in the assay on KB-V1 were 28.7% and 13.5%, respectively.

For the compound `CC(C)NC[C@@H](C(=O)N1CCN(c2ncnc3c2[C@H](C)C[C@H]3O)CC1)c1ccc(Cl)cc1`, the figures for the growth inhibition in the assay with KB-3-1 and with KB-V1 were 45.5% and 54.1%, respectively.

For the compound `CCCCCCCCCCCCc1ccc(S(=O)(=O)Nc2nncs2)cc1`, the growth inhibition in the assay with KB-3-1 worked out at 27.9%; in the assay on KB-V1, 2.32%.

In the case of `Cn1ncnc1[C@H]1c2n[nH]c(=O)c3cc(F)cc(c23)N[C@@H]1c1ccc(F)cc1`, the growth inhibition turned out to be 26% in the assay on KB-3-1 and 32.2% with KB-V1.

Take `O=C(O)CCCN1CCC(O[C@@H](c2ccc(Cl)cc2)c2ccccn2)CC1` [Bepotastine Besilate]: the growth inhibition in the assay with KB-3-1 is less than 0%; in the assay with KB-V1, 20.4%.

In the case of `Cc1[nH]c2ccccc2c1CCNCc1ccc(/C=C/C(=O)NO)cc1` [Panobinostat (LBH589)], the growth inhibition in the assay with KB-3-1 turned out to be 94.9%; in the assay on KB-V1, 99.4%.

As for `CC(=O)Oc1cc2c(s1)CCN(C(C(=O)C1CC1)c1ccccc1F)C2` (stereo unspecified) [Prasugrel], the growth inhibition was 43.4% in the assay with KB-3-1 and 34.6% in the assay with KB-V1.

`COC(=O)Nc1ccc(-c2nc(N3CCOCC3)c3cnn(C4CCN(C(=O)OC)CC4)c3n2)cc1`: the growth inhibition in the assay with KB-3-1 turned out to be 84.4%; in the assay with KB-V1, 86.5%.

In the case of `COc1cc(-c2cc(-c3cccc(O)c3)cnc2N)cc(OC)c1OC`, the growth inhibition in the assay with KB-3-1 and in the assay with KB-V1 was less than 0% throughout.

Regarding `O=C1[C@H](Cc2ccc(O)cc2)N2C(=O)CCN(C(=O)NCc3ccccc3)[C@H]2CN1Cc1cccc2ccccc12`, the growth inhibition in the assay with KB-3-1 and in the assay on KB-V1 was less than 0% each time.

`Clc1ccc(C2(c3ccc(-c4cn[nH]c4)cc3)CCNCC2)cc1`: the growth inhibition in the assay with KB-3-1 worked out at 42.8%; in the assay with KB-V1, 39.8%.

On to `CCCN[C@H]1CCc2nc(N)sc2C1` [Pramipexole], for which the results for the growth inhibition in the assay with KB-3-1 and in the assay with KB-V1 were 26.9% and 12.8%, respectively.

On to `S=C(NCc1ccc2c(c1)OCO2)N1CCN(c2ncnc3c2oc2ccccc23)CC1` [Amuvatinib (MP-470)], for which the growth inhibition was 31.5% in the assay on KB-3-1 and 44% in the assay with KB-V1.

With `CCOC(=O)c1ncn2c1CN(C)C(=O)c1cc(F)ccc1-2` [Flumazenil], the growth inhibition in the assay on KB-3-1 came out at 11.3%; with KB-V1, 38.4%.

Values taken from the supplement of paper PMC7266297.
